From PMC4336329 (PLoS ONE, 2015)
Hit rate of the full screen: of about 310,000 compounds, about 14,000 (4.5%) showed an effect of 50% or more. Effects have a minus sign here. This is one part of the list.

These compounds were tested against human ether-à-go-go-related gene (hERG) potassium channel (human, UniProt Q12809) (assay: primary screen, population patch clamp on CHO cells stably expressing hERG).
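Note: peak tail current of the secondary pulse compared with the same well before compound.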

Chain of human ether-à-go-go-related gene (hERG) potassium channel (Q12809 whole entry, looked up): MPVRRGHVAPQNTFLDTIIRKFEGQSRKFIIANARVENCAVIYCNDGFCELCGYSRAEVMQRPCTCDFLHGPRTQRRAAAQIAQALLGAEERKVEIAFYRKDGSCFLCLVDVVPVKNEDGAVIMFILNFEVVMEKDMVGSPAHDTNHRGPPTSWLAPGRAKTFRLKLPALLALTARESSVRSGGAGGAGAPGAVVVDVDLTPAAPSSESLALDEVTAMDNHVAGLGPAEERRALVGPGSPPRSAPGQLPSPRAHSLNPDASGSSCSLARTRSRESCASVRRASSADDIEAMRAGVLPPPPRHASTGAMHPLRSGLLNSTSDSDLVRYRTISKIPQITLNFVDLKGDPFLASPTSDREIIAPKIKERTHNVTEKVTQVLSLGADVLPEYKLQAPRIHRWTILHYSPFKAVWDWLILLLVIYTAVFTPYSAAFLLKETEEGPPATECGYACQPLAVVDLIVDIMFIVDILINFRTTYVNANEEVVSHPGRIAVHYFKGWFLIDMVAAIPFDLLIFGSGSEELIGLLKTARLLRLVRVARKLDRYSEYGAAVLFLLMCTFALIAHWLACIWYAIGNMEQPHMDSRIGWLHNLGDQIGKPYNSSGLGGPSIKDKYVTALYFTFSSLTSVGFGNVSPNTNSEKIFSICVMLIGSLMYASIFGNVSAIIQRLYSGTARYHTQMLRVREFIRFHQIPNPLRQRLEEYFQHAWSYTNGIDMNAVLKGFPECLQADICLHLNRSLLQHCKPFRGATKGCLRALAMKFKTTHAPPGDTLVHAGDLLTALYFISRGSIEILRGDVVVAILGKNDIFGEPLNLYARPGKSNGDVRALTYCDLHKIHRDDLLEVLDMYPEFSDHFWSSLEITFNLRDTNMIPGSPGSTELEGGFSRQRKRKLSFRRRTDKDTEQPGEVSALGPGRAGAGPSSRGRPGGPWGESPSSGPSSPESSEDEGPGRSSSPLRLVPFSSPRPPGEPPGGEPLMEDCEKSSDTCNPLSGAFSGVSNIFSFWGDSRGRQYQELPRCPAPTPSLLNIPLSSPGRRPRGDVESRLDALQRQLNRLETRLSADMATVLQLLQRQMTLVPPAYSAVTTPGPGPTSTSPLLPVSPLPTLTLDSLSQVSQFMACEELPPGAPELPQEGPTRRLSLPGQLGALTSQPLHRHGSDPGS

SMILES | hERG current change (%, negative = inhibition) at 10uM
COc1ccccc1CNS(=O)(=O)c1cc2c3c(c1)C(C)C(=O)N3CCC2 (centres unmarked) | 19.5%
Cc1ccc(N(CC(=O)NC2CCCC2)C(=O)CCC(=O)Nc2nc(C)cs2)cc1 | -11.9%
CCCCCOC(=O)CSc1nnc(-c2ccccc2)c(=O)[nH]1 | -14.1%
CCN(CC)C(=O)CSc1nnc(-c2cc(-c3ccc(Cl)cc3)nc3ccccc23)o1 | -3.85%
CC1Cc2ccccc2N1C(=O)CCNS(=O)(=O)c1cccc2nsnc12 (centres unmarked) | -10.1%
Cc1c(C=O)c2ccccc2n1CC(=O)NC(C)c1ccccc1 (centres unmarked) | 16.5%
CN(C)c1ccc(NC(=O)CN2C(=O)CN=C(c3ccccc3)c3cc(Cl)ccc32)cc1 | -5.05%
COc1cc2c(C#N)c(N3CCc4ccccc4C3)nc(N)c2c(N)n1 | 6.55%
CCOC(=O)c1ccc(OCCOc2cccc(C)c2)cc1 | 10.7%
CCn1c(-c2cc(Br)cc(OC)c2O)nc2cc(S(=O)(=O)N(C)C)ccc21 | -6.88%
COC(=O)c1ccc(S(=O)(=O)NCc2ccc(S(N)(=O)=O)cc2)o1 | 9.93%
COc1ccc(COc2ccc(S(=O)(=O)N3CCCC3)cc2C(N)=O)cc1F | 4.81%
COc1ccc(CCn2c(C)nc3c(c(=O)c4ccccc4n3C)c2=O)cc1 | -61.4%
C[C@@H]1CN(C(=O)c2nc3ccc(Cl)cn3c2CN2CCc3sccc3C2)C[C@H](C)O1 | -0.882%
Cc1ccc(C)c(NC(=O)CSc2nnc3n2CCCCC3)c1 | 11%
CCCCn1nnc(NC(=O)c2ccc(-c3ccccc3)cc2)n1 | 7.32%
COc1ccc(/C=N/NC(=O)c2ccoc2C)cc1COc1ccc(Cl)cc1 | 4.74%
O=C(c1c(Cl)cccc1Cl)N1CCCCCC1 | 6.06%
Cc1noc(C)c1COC(=O)c1cc(=O)[nH]c2ccccc12 | -22.8%
COc1ccnc(Oc2ccc(F)cc2)c1C(=O)N/C=N/OCc1ccc(F)cc1 | -9.65%
CN(C)C(CNC(=O)Cc1ccc([N+](=O)[O-])cc1)c1ccccc1 (centres unmarked) | -28.6%

SMILES | hERG current change (%, negative = inhibition) at 10uM
CCOC(=O)c1c(-c2ccccc2)nnn1-c1nc(OCC)nc(N2CCCCC2)n1 | -29.1%
Cc1ccccc1C(=O)NN1C(=O)CSC1=S | 15.4%
Cc1ccc(OCC(=O)Nn2c(C)nc3ccccc3c2=O)c(C(C)C)c1 | -34.7%
N#CCC(=O)N1CCN(C(c2ccccc2)c2ccccc2)CC1 | 2.43%
CNc1nc(Oc2ccccc2C(=O)OC)nc(SC)n1 | -4.99%
CCOc1ccc(S(=O)(=O)N2CCN(CC(O)COc3cccc([N+](=O)[O-])c3)CC2)cc1 (centres unmarked) | -65.5%
COC(=O)c1cc(NS(=O)(=O)c2ccc3c(c2)CCC(=O)N3)cc(C(=O)OC)c1 | 14.5%
COc1ccc(NC(=O)CSc2nnc3ccc(-c4ccccn4)nn23)cc1 | 10.9%
Cn1c(=O)c2c(nc(CN3CCN(c4cccc(Cl)c4)CC3)n2CCc2ccccc2)n(C)c1=O | -20.1%
NS(=O)(=O)c1ccc(CCNC(=O)c2ccc3ccccc3n2)cc1 | -10.7%
CC(=O)N1CCc2c(sc(NC(=O)C3CCCN3S(=O)(=O)c3cccs3)c2C#N)C1 (centres unmarked) | -0.991%
COC(=O)C1=C(O)/C(=C\c2ccc(O)c(OC)c2)N=C1C | 3.78%
O=C(NCc1ccccn1)C1CCC(=O)N1C1CCCC1 (centres unmarked) | 1.93%
CC(C)(C)C(=O)N1CCN(c2nc3ccc(Cl)cc3s2)CC1 | -12.2%
CC12CCC(C(=O)Nc3ccccc3Cl)(C(Br)C1=O)C2(C)C (centres unmarked) | -1.31%
CC1(C)C(=O)CC[C@]2(C)C3C(=O)C=C4[C@H]5C[C@@](C)(C(=O)O)CC[C@]5(C)CC[C@]4(C)[C@]3(C)CC[C@@H]12 (some centres unmarked) | 3.34%
CCCCc1ccc(-n2nnnc2SCC(=O)Nc2cc(OC)c([N+](=O)[O-])cc2C)cc1 | 15.3%
CC[C@H]1CN(C)C[C@@]2(C(=O)OC)Cc3c([nH]c4ccccc34)C(=O)C[C@@H]12 | 9.71%
CCOc1ccccc1N1CSC2=C(C#N)C(c3c(OC)ccc4ccccc34)CC(=O)N2C1 (centres unmarked) | 10.2%
CCc1ccc(NS(=O)(=O)c2c(C(=O)N3CCOCC3)c(C)n(C)c2C)cc1 | -22.6%
Cc1ccc(S(=O)(=O)c2cn(C)c3cc(N4CCOCC4)c(F)cc3c2=O)cc1 | 5.26%

SMILES | hERG current change (%, negative = inhibition) at 10uM
COc1ccc([N+](=O)[O-])cc1NC(=O)c1ccc(N(Cc2ccccc2C)S(C)(=O)=O)cc1 | -10.8%
O=C(CN1CCN(Cc2ccccc2)CC1)Nc1ccc(Cl)cn1 | -74.5%
O=C(Cc1cccs1)Nc1ccccn1 | 23.1%
COc1ccccc1/C=C/C(=O)NCC(=O)N/N=C(\CCC(=O)O)c1ccccc1 | 6%
Cc1ccc(C(=O)OCC(=O)N2CC(C)CC(C)C2)cc1S(=O)(=O)N1CCOCC1 (centres unmarked) | -14.5%
CC(C)(C)c1ccc(/C=C2\SC(=O)N=C2N)cc1 | 24.4%
Cc1ccc2nc3ccc(N4CCCC4)nn3c(=O)c2c1 | -8.29%
O=S(=O)(c1ccc2oc3ccccc3c2c1)N1CCOCC1 | -17.7%
Cc1cccnc1CN1CCN(Cc2nc(C(c3ccccc3)c3ccccc3)no2)CC1 | -56.2%
CCOc1ccc2nc(NC(=O)C3CCCN(S(=O)(=O)c4cccs4)C3)sc2c1 (centres unmarked) | -4.06%
COC(=O)c1ccc(C(c2c(N)n(CC(C)C)c(=O)[nH]c2=O)N2CCN(c3ccccc3)CC2)cc1 (centres unmarked) | -8.97%
O=C(N/N=C/C=C\c1ccccc1[N+](=O)[O-])c1ccncc1 | -1.32%
CCc1nnc(NC(=O)CCC(=O)N2CCN(Cc3ccc(Cl)cc3)CC2)s1 | -14.6%
COc1ccc(OCC(=O)Nc2ccc3oc(-c4ccncc4)nc3c2)cc1 | -10.6%
O=C(Nc1ccccc1-c1nc2ccccc2s1)c1ccco1 | -1.74%
COc1cc(C2C(C(=O)c3ccco3)=C(O)C(=O)N2Cc2cccnc2)cc(OC)c1OC (centres unmarked) | 17.7%
COc1cccc(C(=O)Nc2nnc(S(=O)(=O)Nc3cccc(C)c3)s2)c1 | -1.2%
Cc1cc(NC(=O)COC(=O)CCC(=O)c2ccc(F)cc2)no1 | 0.704%
COc1ccccc1NC(=O)c1ccc(-n2cccn2)c([N+](=O)[O-])c1 | -14.8%
O=C(CSc1nc2c(c(C(F)(F)F)n1)CCc1ccccc1-2)NCc1ccco1 | 2.99%
CC(C)(C)CC(=O)Nc1ccc(C(N)=O)cc1 | -2.38%

SMILES | hERG current change (%, negative = inhibition) at 10uM
COCCNC(=S)N1CCc2cc(OC)c(OC)cc2C1COc1ccc(C(C)C)cc1 (centres unmarked) | 16.7%
CCn1c2ccccc2n2c(=O)c(=O)n(CC(=O)N3CCN(c4ccccc4OC)CC3)nc12 | 4.96%
COc1ccc(C2/C=C\CN(C(=O)CC(C)(C)C)CC(=O)N2Cc2ccc(F)cc2)cc1 (centres unmarked) | -13.6%
Cc1cccc(N(CC(=O)NCc2ccccc2)C(=O)CCC(=O)Nc2nccs2)c1 | 5.32%
COc1cc(/C=N/O)ccc1OCc1ccc(C(=O)O)cc1 | -1.94%
Brc1ccc(CN2CCN(c3ccccc3)CC2)o1 | 13.8%
C/C(=N\OC(=O)c1ccc(Cl)c(Cl)c1)c1sc(C)nc1C | -10.7%
COc1ccc(Cl)cc1S(=O)(=O)N1CCC(C(=O)NCc2ccco2)CC1 | -14.2%
Cc1cccc(N(C(=O)CNC(=O)c2ccco2)C(C(=O)NC2CCCC2)c2ccncc2)c1C (centres unmarked) | 3.64%
Cc1nc2c(C)cccn2c1/C(O)=C1\C(=O)C(=O)N(CCN(C)C)C1c1ccco1 (centres unmarked) | 14%
CC(=O)c1ccc(NC(=S)N2CCC(Cc3ccccc3)CC2)cc1 | 4.22%
Cc1ccc2c(c1)nnn2C1CCN(CC(=O)NCCc2nc3ccccc3[nH]2)CC1 | -27.9%
COc1ccccc1C(=O)N/C(=C\c1ccc(Br)cc1)C(=O)N1CCCC1 | -48.6%
Cc1ccc(S(=O)(=O)Nc2nc(C)c(C(=O)NNS(=O)(=O)c3ccccc3)s2)cc1 | 7.31%
CN(CC(=O)Nc1ccc(F)c(F)c1)S(=O)(=O)c1cccc2nsnc12 | -26.1%
COc1ccccc1N1CCN(C(=O)CCC(=O)N2CCN(c3ccccc3OC)CC2)CC1 | 8.6%
CCOc1c(CNc2nnnn2C)cccc1OC | 15.2%
COc1cccc2cc(C(N)=O)/c(=N\NC(=O)c3ccccc3)oc12 | 6.15%
C=CCN(CC#CCOc1ccccc1OC)CC=C.O=C(O)C(=O)O | 2.08%
COc1ccc(OCC(=O)N/N=C(\C)c2cccs2)cc1 | 9.45%
